Results taken from PubChem BioAssay AID485367 (National Center for Advancing Translational Sciences (NCATS), 2010).
Hit rate of the full screen: of about 330,000 compounds, about 560 (0.17%) were called active. Inconclusive means that the source gave no clear call. Such entries were picked first, then a sample of the others. Calls come from the whole dose curve; as a rule, active = well fitted inhibition curve with a large enough effect; inconclusive = small, poorly fitted or top-dose-only effect, or effect the other way; inactive = flat fitted curve, though single readings scatter. Potencies of inconclusive entries are left out as doubtful fits.

biological target: ATP-dependent 6-phosphofructokinase (Trypanosoma brucei brucei) (UniProt O15648); assay: qHTS Assay to Find Inhibitors of T. brucei phosphofructokinase; note: nearly all actives have a fitted effect of over 60% in size;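 for activity, negative = inhibition: 0% = uninhibited 1x PFK enzyme wells and -100% = no-enzyme wells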; details: T. brucei PFK, ADP-Glo luminescence; activity, negative = inhibition: at 57.5 µM (top of the series)
Procedure, shortened: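 ADP-Glo luminescence quantified ADP after 45 min at room temperature, with 1.25 nM T. brucei PFK, 0.1 mM ATP and 0.5 mM fructose-6-phosphate in pH 8.0 TEA buffer. qHTS titrations up to 57 µM; curves classified by quality.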
Potency is the fitted concentration of half-maximal effect; tags give direction and shape of the fitted curve.

UniProt O15648, sequence (O15648 whole entry, looked up): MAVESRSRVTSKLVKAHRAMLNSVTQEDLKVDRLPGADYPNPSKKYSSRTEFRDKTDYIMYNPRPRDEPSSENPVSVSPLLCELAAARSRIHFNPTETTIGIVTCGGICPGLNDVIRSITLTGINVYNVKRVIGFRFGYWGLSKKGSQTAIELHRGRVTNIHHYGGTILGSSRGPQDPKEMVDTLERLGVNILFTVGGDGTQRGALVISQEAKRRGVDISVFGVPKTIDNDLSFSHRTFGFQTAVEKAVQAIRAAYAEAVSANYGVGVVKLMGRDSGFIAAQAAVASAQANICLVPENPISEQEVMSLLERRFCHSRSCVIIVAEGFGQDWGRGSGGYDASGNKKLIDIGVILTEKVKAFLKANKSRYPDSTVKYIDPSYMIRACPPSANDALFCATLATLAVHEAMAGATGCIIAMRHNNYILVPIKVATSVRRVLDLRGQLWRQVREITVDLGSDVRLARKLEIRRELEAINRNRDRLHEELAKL

Row | SMILES | Potency | activity, negative = inhibition
1 | CCOc1ccc(C(C)=O)cc1N1C(=O)C2C3C=CC(C3)C2C1=O (stereo unspecified) | inconclusive [falling, single point] | 
2 | O=CNC1CCCc2c1[nH]c1ccc(Cl)cc21 (stereo unspecified) | inconclusive [falling, single point] | 
3 | COc1ccc(-c2nn(-c3ccccc3)cc2/C=C/C(=O)O)cc1[N+](=O)[O-] |  | inconclusive: 31% [activator]
4 | Cn1c(N)c(C(=O)COC(=O)c2cc(-c3ccco3)nc3ccccc23)c(=O)n(C)c1=O |  | inactive: -1.78%
5 | COc1ccc(C(=O)CSc2nc3ncccc3[nH]2)cc1OC |  | inactive: 2.54%
6 | N#Cc1cc2c([nH]c1=S)CCCC2 | inconclusive [falling, single point] | 
7 | COc1ccc(-n2c(C)c(C(C)=O)c3cc(O)ccc32)cc1 |  | inactive: -1.9%
8 | CC(C)C(OC(=O)c1cccs1)C(=O)NCc1cccs1 (stereo unspecified) |  | inactive: 1.45%
9 | NNc1nc2c(Cl)cccc2s1 | inconclusive [falling, single point] | 
10 | CC(=O)Nc1ccc(S(=O)(=O)N(C)CC(=O)OCC(=O)N2CCN(C(=O)c3ccco3)CC2)cc1 | inconclusive [falling, single point] | 
11 | Cc1cccc(C(=O)OCC(=O)c2ccc(CC(=O)N3CCOCC3)s2)c1C | inconclusive [falling, partial curve] | 
12 | O=C(Nc1ncc(Cc2cccc(C(F)(F)F)c2)s1)C1CCCO1 (stereo unspecified) | inconclusive [falling, single point] | 
13 | O=C(O)c1ccccc1C(=O)Nc1ccc(Br)c(C(F)(F)F)c1 | inconclusive [falling, partial curve] | 
14 | S=c1nc[nH]c2c1[nH]c1ccccc12 |  | inactive: -23.9%
15 | COc1ccc(C2C(C(=O)c3ccco3)=C(O)C(=O)N2c2nnc(C)s2)cc1 (stereo unspecified) | inconclusive [falling, single point] | 
16 | CC(=O)N[C@@H]1c2c(ccc3ccccc23)OC[C@@H]1COC(C)=O | inconclusive [activator, partial curve] | 
17 | COc1ccc(N2CCN(S(=O)(=O)c3ccc(-n4cnnn4)c(C)c3)CC2)cc1 | inconclusive [falling, single point] | 
18 | Cc1ccccc1NC(=S)Nc1cccc2cnccc12 |  | inactive: 1.56%
19 | C=CCn1c(COc2ccc(F)cc2)nnc1SCC(=O)NC1CCS(=O)(=O)C1 (stereo unspecified) | inconclusive [falling, single point] | 
20 | CCOc1ccc2nc(SCC(=O)c3ccc(O)cc3O)sc2c1 |  | inconclusive: -33%
21 | O=C(Nc1ccccc1C(=O)NC1CC1)c1ccc([N+](=O)[O-])o1 | inconclusive [falling, single point] | 
22 | Nc1ccc2c(c1)C/C(=C/c1ccco1)C2=O |  | inactive: 1.3%
23 | Cn1sc(=O)c2cc(S(=O)(=O)NC3CC3)ccc21 | active: 15.1 µM | 
24 | CC(C)C(NC(=O)CSCc1ccc([N+](=O)[O-])cc1)C(C)C | inconclusive [falling, single point] | 
25 | O=C(CN1CCC(n2nnc3cc(F)ccc32)CC1)NC1CCCCC1 |  | inactive: -2.32%
26 | S=c1[nH]nc(-c2ccccc2)n1/N=C/c1c[nH]c2ccccc12 | inconclusive [falling, partial curve] | 

Row | SMILES | Potency | activity, negative = inhibition
27 | CC1CCN(S(=O)(=O)c2ccc(NC(=O)Cc3cccs3)cc2)CC1 | inconclusive [falling, single point] | 
28 | Cc1ccc(S(=O)(=O)N2CCN(c3ccnc4cc(Cl)ccc34)CC2)cc1 |  | inactive: 4.73%
29 | CC(=O)NN1C(=O)c2ccccc2NC1c1ccc([N+](=O)[O-])o1 (stereo unspecified) | inconclusive [activator, single point] | 
30 | Cc1cccc(Cn2ccc(N)n2)c1 | inconclusive [falling, single point] | 
31 | O=C(O)C1Nc2c(Cl)cc(Cl)cc2C2C=CCC12 (stereo unspecified) | inconclusive [falling, partial curve] | 
32 | Cc1ccc([N+](=O)[O-])cc1N=Cc1ccc(Br)s1 | inconclusive [falling, single point] | 
33 | O=c1c2ccccc2nnn1CSc1nnnn1-c1ccc(O)cc1 |  | inactive: -2.34%
34 | O=C(Nc1ccc(Cl)cc1)Nc1nc(-c2sccc2Br)cs1 |  | inactive: 0.322%
35 | COc1cc(C(=O)COC(=O)C2CCN(c3ccc(C(F)(F)F)cn3)CC2)ccc1OC(F)F |  | inactive: -2.27%
36 | COc1ccc(CC(=S)N2CCOCC2)cc1 | inconclusive [falling, single point] | 
37 | COc1ccc(CC(=O)Nc2ccc(S(=O)(=O)Nc3cc(C)on3)cc2)cc1 | inconclusive [falling, partial curve] | 
38 | Cc1ccc2nc(NC(=O)C3CCCN(S(=O)(=O)c4cnc[nH]4)C3)sc2c1 (stereo unspecified) |  | inactive: 3.86%
39 | CC(Cc1c[nH]c2ccccc12)C(=O)O (stereo unspecified) | inconclusive [falling, single point] | 
40 | Cc1c2cc(O)c(=O)cc-2oc2cc(O)c(O)cc12 | active: 3.38 µM | 
41 | COCCN(C(=O)CSc1nnc(Nc2ccccc2F)s1)c1c(N)n(Cc2ccccc2)c(=O)[nH]c1=O | inconclusive [falling, single point] | 
42 | COc1ccc(CCNC(=O)C2(c3ccccc3)CC2)cc1 |  | inactive: 2.46%
43 | CCOc1ccc(S(=O)(=O)N2CCN(c3ccc(C)cc3C)CC2)cc1 |  | inactive: -0.319%
44 | COC(=O)Cn1c(=NC(=O)c2ccc([N+](=O)[O-])s2)sc2cc(Br)ccc21 | inconclusive [falling, single point] | 
45 | COc1cc2ccccc2cc1C(=O)OCC(=O)N1CCOCC1 |  | inactive: -1.26%
46 | O=C(CSC1=NS(=O)(=O)c2cc(Cl)ccc2N1)Nc1cccc(F)c1 | inconclusive [falling, partial curve] | 
47 | COc1ccc(C2=CC(=O)C=CC2=O)cc1 | active: 6.75 µM | 
48 | Cc1nn(Cc2ccc(Cl)cc2)c(C)c1NC(=O)CCCn1nc(C)c([N+](=O)[O-])c1C | inconclusive [falling, single point] | 
49 | CCOc1ccc(-c2ccc(SC)nn2)cc1 | inconclusive [falling, full curve] | 
50 | NS(=O)(=O)c1ccc(NC(=O)C2Cc3ccccc3CN2C(=O)c2ccco2)cc1 (stereo unspecified) | inconclusive [falling, partial curve] | 
51 | C/C(=C\c1ccc(C)o1)C(=O)c1c(C)cc(C)[nH]c1=O |  | inactive: -5.87%
52 | CC(OC(=O)C1CCC(=O)N1)C(=O)Nc1cc(Cl)cc(Cl)c1 (stereo unspecified) | inconclusive [falling, single point] | 

Row | SMILES | Potency | activity, negative = inhibition
53 | CC(C)c1ccc(OCc2ccc(C(=O)O)o2)cc1 | inconclusive [falling, single point] | 
54 | FC(F)(F)c1cnc(-c2cnc(-c3cccnc3)nc2)c(Cl)c1 |  | inactive: -3.79%
55 | COCCOC(=O)c1ccc(NC(=O)COc2ccc([N+](=O)[O-])cc2)cc1 | inconclusive [falling, single point] | 
56 | O=C(CSc1nc(-c2ccco2)cc(C(F)(F)F)n1)Nc1ccccc1C(F)(F)F | inconclusive [activator, single point] | 
57 | N#C/C(=C\c1ccc[nH]1)C(=O)Nc1ccccc1[N+](=O)[O-] | inconclusive [falling, single point] | 
58 | Cn1c(N)c(C(=O)CSc2nnc(C3CC3)n2Cc2ccccc2)c(=O)[nH]c1=O | inconclusive [falling, single point] | 
59 | COc1ccc(N(C(=O)c2ccccc2C)S(=O)(=O)c2cccs2)cc1 |  | inactive: -3.88%
60 | CCCCN(CC)CCCNC(=O)c1cc2c(=O)n(CC)c3ccccc3c2s1 |  | inactive: 8.95%
61 | COc1cccc(NC(=S)N2CCC(N(C)CC3CCCO3)CC2)c1 (stereo unspecified) | inconclusive [falling, single point] | 
62 | Cc1nc(-c2ccc(C(=O)N3CCCC3)cc2)cs1 | inconclusive [falling, single point] | 
63 | Cc1cccc(NC(=O)c2cc(C)nc3ccccc23)c1 |  | inactive: -14.4%
64 | Cc1ccc2cc(CN(Cc3ccco3)C(=O)NCc3ccccc3)c(=O)[nH]c2c1C |  | inactive: -0.934%
65 | Cc1ccc(C(=O)C(c2ccccc2)N2Cc3ccccc3C2=N)cc1 (stereo unspecified) |  | inactive: 1.16%
66 | O=C(COc1ccccc1)Nc1ccc(S(=O)(=O)Nc2ccccn2)cc1 | inconclusive [falling, single point] | 
67 | CC1=C(C(=O)Nc2ccccc2C(F)(F)F)C(c2ccc(C)s2)NC(=S)N1 (stereo unspecified) | inconclusive [activator, single point] | 
68 | CC(=O)N1CCN(c2ccc(NC(=O)c3ccc(Cl)c([N+](=O)[O-])c3)cc2)CC1 | inconclusive [falling, partial curve] | 
69 | CCOC(=O)c1c(C)n(-c2ccc(C)cc2)c2c(CC(C)=O)c(Br)c(OC)c(O)c12 |  | inactive: 1.99%
70 | COc1ccc(C(=O)N=c2sc3c(C)ccc(OC)c3n2C)cc1 |  | inactive: -3.98%
71 | O=C(NNC(=O)c1ccc(Cl)cc1Cl)Nc1ccccc1 | inconclusive [falling, single point] | 
72 | CCNc1nc(NCC)n2c(SCC(=O)Nc3ccc(OC(F)F)cc3)nnc2n1 | active: 7.57 µM | 
73 | COc1cc(C(=O)Nc2nc(-c3ccc(F)cc3)cs2)ccc1OCC(=O)N1CCOCC1 |  | inactive: -0.111%
74 | Cc1nc(SCC(=O)c2ccccc2)n[nH]1 | inconclusive [falling, single point] | 
75 | O=C(O)CN1C(=O)/C(=C/c2ccc(SCc3ccccc3)o2)SC1=S | inconclusive [falling, single point] | 
76 | O=C(O)CCC(=O)N1CCc2cc(S(=O)(=O)N3CCN(c4ccc(F)cc4)CC3)ccc21 | inconclusive [falling, single point] | 
